Measured values from paper PMC4336329 (PLoS ONE, 2015).
The whole screen tested about 310,000 compounds, of which about 14,000 (4.5%) showed an effect of 50% or more. Effects have a minus sign here. The list shows a part of the results.

molecular target: human ether-à-go-go-related gene (hERG) potassium channel (human, UniProt Q12809); test: primary screen, population patch clamp on CHO cells stably expressing hERG
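Further: peak tail current of the secondary pulse compared with the same well before compound.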

Sequence of human ether-à-go-go-related gene (hERG) potassium channel (Q12809 whole entry, looked up): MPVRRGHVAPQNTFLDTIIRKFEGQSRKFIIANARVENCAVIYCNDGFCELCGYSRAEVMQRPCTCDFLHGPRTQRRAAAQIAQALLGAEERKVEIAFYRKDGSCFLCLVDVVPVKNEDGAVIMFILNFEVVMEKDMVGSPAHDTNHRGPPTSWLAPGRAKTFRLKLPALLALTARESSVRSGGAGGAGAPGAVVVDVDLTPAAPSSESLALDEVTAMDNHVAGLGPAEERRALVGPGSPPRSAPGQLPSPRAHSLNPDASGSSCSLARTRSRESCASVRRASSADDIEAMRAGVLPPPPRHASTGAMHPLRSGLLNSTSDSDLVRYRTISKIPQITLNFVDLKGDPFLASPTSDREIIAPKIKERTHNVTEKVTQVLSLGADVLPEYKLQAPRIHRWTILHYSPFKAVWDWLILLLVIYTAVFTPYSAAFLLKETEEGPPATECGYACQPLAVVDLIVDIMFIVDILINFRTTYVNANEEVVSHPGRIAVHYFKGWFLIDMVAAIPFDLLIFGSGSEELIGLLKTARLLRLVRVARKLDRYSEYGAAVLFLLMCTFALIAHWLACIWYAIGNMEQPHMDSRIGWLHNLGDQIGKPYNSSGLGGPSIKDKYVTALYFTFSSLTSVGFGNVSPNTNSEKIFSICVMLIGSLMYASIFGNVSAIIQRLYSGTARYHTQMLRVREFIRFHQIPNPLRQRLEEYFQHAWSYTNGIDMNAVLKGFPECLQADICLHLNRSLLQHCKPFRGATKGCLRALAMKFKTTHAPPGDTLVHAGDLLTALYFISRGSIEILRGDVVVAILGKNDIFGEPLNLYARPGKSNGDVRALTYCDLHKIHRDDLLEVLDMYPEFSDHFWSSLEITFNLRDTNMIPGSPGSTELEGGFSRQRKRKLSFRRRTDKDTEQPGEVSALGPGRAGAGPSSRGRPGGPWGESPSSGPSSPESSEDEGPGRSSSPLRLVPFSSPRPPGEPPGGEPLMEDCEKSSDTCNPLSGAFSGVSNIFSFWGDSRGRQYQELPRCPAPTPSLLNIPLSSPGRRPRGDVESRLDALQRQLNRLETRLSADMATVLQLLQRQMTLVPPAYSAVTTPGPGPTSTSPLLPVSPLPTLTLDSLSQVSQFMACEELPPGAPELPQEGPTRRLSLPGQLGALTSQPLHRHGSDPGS

| SMILES | hERG current change (%, negative = inhibition) at 10uM |
| --- | --- |
| CCOC(=O)C1(CC/C(C)=N\NC(N)=O)CC(C)(C)OC1=O (centres unmarked) | 3.89% |
| Cc1ccc(C2CC(c3cccs3)=NN2C(=O)CSc2nc(=O)n3ccc(C)cc3n2)cc1 (centres unmarked) | -46.3% |
| CS(=O)(=O)N(Cc1ccco1)Cc1ccccc1Cl | -17.6% |
| CC(=O)c1ccc(Nc2ccc(-c3ccccc3C)nn2)cc1 | -17.5% |
| CC(N=C1NC(C)(C)Cc2ccccc21)C(=O)O (centres unmarked) | 16.8% |
| O=C(O)CN1C(=O)/C(=C\c2cc(Br)ccc2OCc2ccccc2Cl)SC1=S | 19.4% |
| CCCNC(=O)OCc1cccnc1Sc1ccc(C)cc1 | -30% |
| COc1ccc(NC(=O)c2ccc(-n3nc(C)cc3C)cc2)cc1OC | -1.4% |
| COc1cccc(CNC(=O)CN2C(=O)COc3ccc(S(=O)(=O)N4CCCCC4)cc32)c1 | 7.3% |
| CCOc1ccc(CCNC(=O)COC(=O)c2cc(OC)c(OC)c(OC)c2)cc1OCC | 8.32% |
| COc1ccc(OCC(=O)N2CCN(C(=O)Cc3ccccc3)CC2)cc1 | -32.5% |
| O=S1(=O)CCC(N2CCOCC2)C1 (centres unmarked) | -0.887% |
| COC(=O)Nc1nc(-c2ccccc2)c(C(=O)c2ccc(Cl)cc2)s1 | 9.4% |
| COc1ccc(-c2csc(N3CCN(S(=O)(=O)c4ccc5c(c4)NC(=O)CO5)CC3)n2)cc1 | 17.2% |
| Cc1ccc(C(=O)Cn2nnc(-c3cccs3)n2)cc1 | 2.22% |
| Cc1nnc(SCC(=O)N2CCCC2)n1-c1ccc(F)cc1 | -5.16% |
| COc1ccc(-c2oc3ccccc3c(=O)c2OCC(=O)O)cc1 | 17.9% |
| O=C(C1CCCO1)N1CCN(C(=S)NC2CC2)CC1 (centres unmarked) | 23% |
| O=C(CSc1ccc(-c2ccco2)nn1)NC1CCCC1 | -12% |
| CCOc1ccccc1/C=C/c1onc(C)c1S(=O)(=O)N1CCC(C(=O)NC(C)(C)C)CC1 | 11.9% |
| CCCOc1ccc(CSC(CC(=O)O)C(=O)O)cc1 (centres unmarked) | -1.74% |
| CC(=O)OCC(COC(C)=O)OC(C)=O | 33.1% |
| N#C/C(=N\O)c1nc2ccccc2s1 | 16.6% |

| SMILES | hERG current change (%, negative = inhibition) at 10uM |
| --- | --- |
| CCOC(=O)c1sc(NC(=O)Cc2ccc(C)cc2)nc1C | -46.5% |
| Cc1cc(C=C2C(=O)NC(=S)NC2=O)c(C)n1C1CCCC1 | -2.09% |
| CCN(CC)CCNCc1ccc(-c2ccc(Cl)cc2)o1.Cl | -72.8% |
| CN(C)Cc1nc2ccccc2c(=O)n1Cc1nc(-c2cc3ccccc3o2)cs1 | 9.3% |
| CCOCCCNS(=O)(=O)c1cc(Br)cc2c1N(C(=O)C1CC1)CC2 | -17.8% |
| c1ccc(OCCCCn2cnc3ccccc32)cc1 | -43% |
| CC(C)c1ccc(CNc2ncc(Br)cn2)cc1 | 14.4% |
| CCn1c(=O)n(CC)c2cc(S(N)(=O)=O)ccc21 | -7.36% |
| CCOc1cc(-c2cc(-c3ccc(C)cc3)nc(N)c2C#N)ccc1O | -3.7% |
| CCc1ccc(-n2nnnc2SCC(=O)NNC(=O)c2ccco2)cc1 | -11.1% |
| Cc1ccc(CNC(=O)COC(=O)c2cc3c(s2)CCC(C)C3)cc1 (centres unmarked) | 17.6% |
| N#CCSc1ccc2nc(-c3ccccc3)cn2n1 | -6.5% |
| CC1(C)C2CCC(C2)C1(C)NC(=O)C[N+](C)(C)C.[Cl-] (centres unmarked) | 12.6% |
| O=C(Cc1cccc(NC(=O)C2CCCN(C(=O)CCc3ccccc3)C2)c1)Nc1cccc(C(=O)N2CCCC2)c1 (centres unmarked) | -39.5% |
| Cc1ccc(NC(=O)CSc2nnc(NC(=O)CN3CCOCC3)s2)cc1 | -5.82% |
| Cc1ccccc1CCNC(=O)C1CCC(=O)N(Cc2ccc(Cl)cc2)C1 (centres unmarked) | -33.4% |
| CCOC(=O)CSc1nnc(CNC(=O)c2cccs2)n1-c1cc(OC)ccc1OC | -16.9% |
| Brc1cccc(CNCCc2ccc3c(c2)OCO3)c1.O=C(O)C(=O)O | -24.9% |
| O=C(NCC1COCCO1)c1cc(COc2c(F)cccc2F)on1 (centres unmarked) | 9.36% |
| Cc1ccc2oc(C(=O)N3CCN(c4cccc(C)n4)CC3)c(C)c2c1 | 8.84% |
| CSc1ncccc1C(=O)OCC(=O)Nc1ccc(S(=O)(=O)N2CCCC2)cc1 | -2.68% |
| CS(=O)(=O)c1ccc2nc(NC(=O)CN3CCC(Cc4ccccc4)CC3)sc2c1 | -4.71% |
| CCOC(=O)N1CCN(S(=O)(=O)c2ccc(F)c(C(=O)Nc3cccc(C)c3C)c2)CC1 | 7.02% |

| SMILES | hERG current change (%, negative = inhibition) at 10uM |
| --- | --- |
| CC(c1ccccc1)C(CC(=O)O)C(=O)Nc1ccc(Cl)c(Cl)c1 (centres unmarked) | 13.8% |
| O=C(COC(=O)C1(c2ccc(F)cc2)CCCC1)Nc1ncc(C(F)(F)F)cc1Cl | -22.4% |
| COc1cccc(N=CC2=C(O)CCCC2=O)c1 | 32.9% |
| Cc1nc(N2CCC(C)CC2)c2c(C)c(C(=O)Nc3cccc(C(F)(F)F)c3)sc2n1 | 5.74% |
| CC(C)Oc1ccc(CNC(=O)c2cc(S(=O)(=O)N3CCOCC3)cn2C)cc1 | 5.3% |
| CCS(=O)(=O)N1CCC(NC(=O)C2CCCCC2)CC1 | 13.7% |
| CCCCNC(=O)C1CCCNC1=O (centres unmarked) | 2.58% |
| O=C(NCC1CCCO1)C(c1ccncc1)N(Cc1cccs1)C(=O)Cn1nnc(-c2ccc(F)cc2)n1 (centres unmarked) | -60.1% |
| CN(C)c1cccc(NC(=O)c2cccc3ccccc23)c1 | 15.4% |
| Cc1ccc(NC(=O)C2COc3ccccc3O2)cc1 (centres unmarked) | 2.06% |
| O=S(=O)(c1ccc(Br)cc1)N1CCCC1 | -7.87% |
| CCOC(=O)c1ccc(NC(=S)N(CCN(C)C)Cc2cccs2)cc1 | -9.16% |
| Cc1cnnn1-c1ccc(C(=O)CCl)cc1 | 19.2% |
| Cc1cc(C(F)(F)F)nn2cnnc12 | 16.5% |
| Cc1cccc(C)c1NC(=O)CNC(=O)c1ccc(COc2ccccc2)o1 | -3.59% |
| CCOC(=O)c1ccc(NC(=O)CSc2nccn2C)cc1 | 3.34% |
| N#CCCSc1nc(N2CCOCC2)c2c(c1C#N)CCCC2 | -31.5% |
| COc1ccccc1NC(=O)CCCC(=O)OCC(F)(F)C(F)F | -1.37% |
| CC(C)C(=O)Nc1nnc(SCC(=O)NCc2ccco2)s1 | -6.31% |
| CCS(=O)(=O)N1CCN(Cc2c[nH]c3ccccc23)CC1.O=C(O)C(=O)O | 5.44% |
| CCc1nc2ccc(C)cc2c(C(=O)Oc2cccc3cccnc23)c1C | 15.1% |
| COc1cccc(/C=C/C(=O)OCC(=O)Nc2cccc(S(=O)(=O)N3CCOCC3)c2)c1OC | -17.1% |
| COc1ccc(OC)c(Nc2nc(-c3sc(NC(=O)CC(C)C)nc3C)cs2)c1 | 13.5% |

| SMILES | hERG current change (%, negative = inhibition) at 10uM |
| --- | --- |
| O=C(c1ccccc1)N1CCN(c2ncnc3c(-c4ccccc4)nsc23)CC1 | 6.38% |
| CSc1nnc(C)c(/C=C/Nc2ccc(F)cc2)n1 | -5.65% |
| CC(=O)C1C(c2cccc(F)c2)NC(=O)NC1(O)C(F)(F)F (centres unmarked) | 6.15% |
| Cc1ccc(Nc2nc(N/N=C/c3c[nH]c4ccccc34)nc(N3CCOCC3)n2)cc1 | -3.42% |
| CN1CCN(CCCNC(=O)c2cc3c(-c4ccc(Cl)cc4)nn(C)c3s2)CC1 | -40.1% |
| Cc1c[n+]([O-])n(-c2ccc(C(=O)O)cc2)n1 | 0.473% |
| Cn1c(=O)oc2cc(S(=O)(=O)NCc3ccncc3)ccc21 | 12.4% |
| CN1CCN(C2CCCCC2NS(=O)(=O)c2ccccc2)CC1 (centres unmarked) | 9.24% |
| CC(C)NC(=O)C(=O)NCCCN1CCOCC1 | 25.1% |
| O=c1[nH]c2ccccc2c(O)c1-c1ccccc1[N+](=O)[O-] | 20.6% |
| CCn1c(C)nc2cc(C(=O)NNS(=O)(=O)c3ccc(C)c(C)c3)ccc21 | -14.5% |
| NC(=O)Cc1nc(-c2ccc([N+](=O)[O-])cc2)cs1 | -4.22% |
| CCOC(=O)c1cnn(CCOC(=O)c2cccc(F)c2)c1NC(=O)c1cccc(F)c1 | 24% |
| COC(=O)c1c(NC(=O)c2ccc(C)cc2)csc1C | 7.8% |
| O=C(NCCc1ccccc1)c1ccco1 | 0.15% |
| CC(C)NC(=O)c1cccc2c1-c1ccccc1C2=O | 15.6% |
| CC1Cc2ccccc2N1CC(=O)Nc1cccc(S(N)(=O)=O)c1 (centres unmarked) | 13.3% |
| O=C(CN1CCN(c2ccc(Cl)cc2)CC1)Nc1ccc(F)cc1 | -60.9% |
| COc1ccc(/C(C)=N/NC(=O)c2ccncc2)cc1[N+](=O)[O-] | -10.9% |
| COc1ccc(NC(=O)C(NC(=O)Cc2cccs2)c2ccccc2)cc1 (centres unmarked) | 14.8% |
| Cc1cc(Cl)ccc1OC(C)C(=O)NCCCCc1ccccc1 (centres unmarked) | 1.86% |
| COc1cc(OC)c(NC(C)C(=O)N2CCCC2)cc1Cl (centres unmarked) | 26.9% |
| Fc1ccc(-c2nc3c(-c4ccc(Cl)cc4)cnn3cc2CCN2CCOCC2)cc1 | 20.2% |
